Reference: PMC4336329 (PLoS ONE, 2015)
The campaign covered roughly 310,000 compounds. About 14,000 (4.5%) showed an effect of 50% or more. Effects have a minus sign here. This is one part of the list.

target: human ether-à-go-go-related gene (hERG) potassium channel (human, UniProt Q12809); test: primary screen, population patch clamp on CHO cells stably expressing hERG
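Further: peak tail current of the secondary pulse compared with the same well before compound.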

Sequence of human ether-à-go-go-related gene (hERG) potassium channel (Q12809 whole entry, looked up): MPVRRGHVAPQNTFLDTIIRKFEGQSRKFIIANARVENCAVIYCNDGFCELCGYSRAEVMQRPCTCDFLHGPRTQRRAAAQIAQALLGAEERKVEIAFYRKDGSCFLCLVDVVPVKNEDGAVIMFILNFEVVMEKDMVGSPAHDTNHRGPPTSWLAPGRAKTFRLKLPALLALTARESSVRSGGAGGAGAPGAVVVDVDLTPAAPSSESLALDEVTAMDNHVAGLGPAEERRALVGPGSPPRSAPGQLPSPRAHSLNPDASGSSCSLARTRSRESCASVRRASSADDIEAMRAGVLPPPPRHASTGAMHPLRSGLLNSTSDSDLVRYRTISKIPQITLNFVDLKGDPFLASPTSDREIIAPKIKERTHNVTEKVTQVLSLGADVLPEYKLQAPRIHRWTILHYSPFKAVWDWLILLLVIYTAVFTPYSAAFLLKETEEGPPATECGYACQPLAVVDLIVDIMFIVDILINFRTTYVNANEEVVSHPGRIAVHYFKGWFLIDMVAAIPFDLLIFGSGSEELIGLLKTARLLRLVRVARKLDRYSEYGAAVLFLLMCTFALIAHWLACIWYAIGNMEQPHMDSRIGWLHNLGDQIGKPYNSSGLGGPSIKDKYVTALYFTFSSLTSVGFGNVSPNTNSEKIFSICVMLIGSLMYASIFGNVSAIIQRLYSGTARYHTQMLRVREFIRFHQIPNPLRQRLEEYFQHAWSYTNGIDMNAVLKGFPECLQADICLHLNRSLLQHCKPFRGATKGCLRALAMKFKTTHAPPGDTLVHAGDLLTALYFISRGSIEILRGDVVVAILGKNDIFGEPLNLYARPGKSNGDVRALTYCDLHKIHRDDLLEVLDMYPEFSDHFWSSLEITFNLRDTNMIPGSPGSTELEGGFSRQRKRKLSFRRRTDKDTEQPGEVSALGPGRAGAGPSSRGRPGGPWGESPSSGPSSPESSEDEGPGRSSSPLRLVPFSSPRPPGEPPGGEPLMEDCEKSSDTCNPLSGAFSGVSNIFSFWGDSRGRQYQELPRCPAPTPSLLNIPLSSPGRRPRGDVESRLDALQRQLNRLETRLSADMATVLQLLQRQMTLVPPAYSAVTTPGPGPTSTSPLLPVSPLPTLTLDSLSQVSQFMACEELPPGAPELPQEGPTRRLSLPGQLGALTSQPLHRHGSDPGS

| SMILES | hERG current change (%, negative = inhibition) at 10uM [%] |
| --- | --- |
| CCOc1ccc(NC(=O)CCn2c(=O)[nH]c3ccsc3c2=O)cc1 | 12.1 |
| CCC1(CC)Cc2ccccc2C(Nc2c(C)n(C)n(-c3ccccc3)c2=O)=N1 | -7.53 |
| O=C(NCc1ccccc1)c1ccc(OC2CSC2)cc1 | 16.6 |
| CCOC(=O)c1cc(S(=O)(=O)NC2CCN(C(=O)OCC)CC2)cn1C | -2.54 |
| COc1ccc(Cc2nnc(SC)[nH]c2=O)cc1OC | 9.63 |
| O=c1[nH]c2ccc([N+](=O)[O-])cc2nc1/C=C(\O)c1ccccc1 | 16.8 |
| Cc1ccc2nc(NCc3ccccc3)c(C#N)cc2c1 | -9.93 |
| CCC(=O)c1ccc(N2CCN(C(=O)c3cc([N+](=O)[O-])ccc3F)CC2)c(F)c1 | -42.9 |
| O=C(O)CSc1nnc(-c2ccccc2)c(-c2ccccc2)n1 | 15 |
| Cc1ccc(NC(=S)/N=C(\N)Nc2nc(C)c3cc(C)c(C)cc3n2)cc1C | 6.12 |
| CCOc1cccc(N2C(=O)CC(=O)NC2=O)c1 | 1.22 |
| CCCNC(=O)NC(=O)CSc1cccc(C(F)(F)F)c1 | 11.1 |
| COc1ccc(-n2nc(C(=O)NCC(=O)N3CCN(c4ccccn4)CC3)c3ccccc3c2=O)cc1Cl | 2.58 |
| CC(C)N(Cc1ccccc1)C(=O)c1ccc2nsnc2c1 | 1.98 |
| CCOC(=O)/C(=C\c1ccccc1)C(=O)c1cc(C(C)=O)c(Nc2ccccc2)s1 | -4.85 |
| Cc1c(C(=O)c2ccc(F)cc2F)c2ccccn2c1CCC#N | 0.824 |
| Cc1cc(Nc2ccc(F)cc2Cl)n2nc(C)nc2n1 | -8.79 |
| Cc1ccc2nc(C(Cl)(Cl)Cl)nc(N/N=C/c3ccncc3)c2c1 | 24 |
| COc1ccc(C)cc1Cn1nnc2ccccc21 | -4.34 |
| COc1ccc(OC)c(C2=NOC(C(=O)NCC3CCCO3)C2)c1 (centres unmarked) | 4.2 |
| COc1ccccc1NC(=O)N1CCCC1C(=O)NCCc1ccccc1 (centres unmarked) | 16.5 |
| COc1cccc(C(=O)COC(=O)C2CC(=O)N(c3ccc(Oc4ccccc4OC)cc3)C2)c1 (centres unmarked) | -4.07 |
| Cc1onc(-c2ccccc2Cl)c1C(=O)NCCN1CCOCC1 | 9.41 |

| SMILES | hERG current change (%, negative = inhibition) at 10uM [%] |
| --- | --- |
| CCN(CC)S(=O)(=O)c1ccc2c(c1)N(CC(=O)NCc1ccccn1)C(=O)CO2 | -7.41 |
| Cn1c(CCNC(=O)c2ccco2)nc2cc(NC(=O)NC3CCCCC3)ccc21 | 0.679 |
| COC(=O)CCC(=O)OC1(C)C(=O)C2=CN(c3ccccc3)C(c3ccc(OC)cc3)=CC2=C(Br)C1=O (centres unmarked) | 6.51 |
| COc1ccccc1OCC(=O)NNc1c2ccccc2nc2ccccc12 | -7.43 |
| CCOC(=O)c1[nH]c2cc(OC)c(OC)cc2c1NC(=O)CN1CCN(c2ccc(OC)cc2)C(C)C1 (centres unmarked) | -17.5 |
| N#CCc1nn(-c2ccc(Cl)cc2)c(N)c1C#N | 0.795 |
| O=C(CCCN1C(=O)S/C(=C\c2ccccc2)C1=O)NNC(=O)c1ccccc1O | 14.2 |
| CCN(CC)CCn1c(NCc2ccccn2)nc2ccccc21.Cl | -34.4 |
| COc1ccc(CN2CCSCC2)cc1C | 7.71 |
| COc1ccc(CCNC(=O)C2C3CCC(C3)C2C(=O)O)cc1OC (centres unmarked) | 18.4 |
| O=C(NCc1ccccc1)c1ccc2c(c1)OCCO2 | 9.1 |
| COc1ccc(N2C(=O)CC(c3ccccc3)CC2=O)cc1 | 16.7 |
| CC1(C)Cc2c(C#N)c(SCC(=O)O)nc(N3CCOCC3)c2CO1 | 22.2 |
| O=C(CCNS(=O)(=O)c1cccs1)N1CCN(c2cccc(Cl)c2)CC1 | -10.3 |
| COc1ccc(CNC(=O)COc2cc3c(c4oc(=O)cc(C)c24)CCC(C)(C)O3)cc1 | -7.99 |
| CCCC(=O)NC(=S)Nc1cccc(NC(=O)c2ccccc2)c1 | -1.54 |
| Cn1c(=O)c2c(nc(Oc3ccc(-c4ccccc4)cc3)n2C)n(C)c1=O | -3.81 |
| CS(=O)(=O)N(CC(=O)NCCSC1CCCCC1)c1cccc(F)c1 | 1.25 |
| CC(=O)Nc1ccc2[nH]c3ccccc3c2c1 | -1.66 |
| COc1cc(Cl)ccc1OCc1cc(C(=O)NC2CCc3ccccc32)no1 (centres unmarked) | 12.1 |
| Cc1ccc(-c2nnc(-c3ccccc3)o2)cc1Br | 7.16 |
| Cc1onc(-c2ccccc2)c1C(=O)c1ccccc1 | 3.87 |
| O=S1(=O)CCOCCCN1Cc1cccc(F)c1 | 9.64 |

| SMILES | hERG current change (%, negative = inhibition) at 10uM [%] |
| --- | --- |
| O=c1c2ccccc2nc2n1CCC2 | 13.6 |
| Cc1ccc(OCCN2CCN(C(=O)CCC(=O)Nc3nnc(C(C)C)s3)CC2)cc1 | -1.46 |
| CC1CCCN(S(=O)(=O)c2ccc(C(=O)Nc3sc4c(c3C(N)=O)CCN(C)C4)cc2)C1 (centres unmarked) | -4.95 |
| Cc1cc(C)c(NC(=O)CNC(=O)c2ccccc2SCC(=O)N2CCCC2)c(C)c1 | 13.9 |
| CCn1c(C)nc2c(C)[n+](CC(=O)c3ccc(Br)cc3)ccc21.[Br-] | 11.5 |
| CCN(C(=O)c1ccco1)c1nnc(-c2cccnc2)s1 | 6.86 |
| Cc1c(C(=O)Nc2ccccc2)c2cc(O)ccc2n1Cc1ccccc1 | 4.2 |
| O=C(CCNC(=O)c1ccco1)Nc1ccccc1OC(F)F | 10.4 |
| CC(=O)Oc1ccccc1C(=O)Nc1ccccc1C(=O)N1CCCCC1 | -6.86 |
| COc1ccc(Cl)cc1NC(=O)[C@@]1(CC(=O)O)CC(/C=C/c2ccccc2)=NO1 | 26.3 |
| CC1=Nc2ccccc2/C1=C/c1c(O)[nH]c(=O)[nH]c1=O | 11 |
| CCOC(=O)C1CCCN(C(=O)Cn2sc3nc(C)cc(C)c3c2=O)C1 (centres unmarked) | 4.37 |
| Cc1ccc(S(=O)(=O)N2CCN(C(=O)COC(=O)/C=C/c3ccccc3)CC2)c(C)c1 | -7.67 |
| O=C(NCc1ccco1)c1c(F)cccc1Cl | 9.04 |
| C/C(=N\NC(=O)c1cccc(S(=O)(=O)N2CCCC2)c1)c1ccccc1F | 8.25 |
| COc1ccc(-c2oc(=O)c3cc(OC)c(OC)cc3c2C(F)(F)F)cc1 | 23.7 |
| COc1ccccc1NC(=O)NCCCN1CCN(c2cccc(Cl)c2)CC1 | -73.7 |
| CC(C)CCOc1ccc(C2(C)NC(=O)NC2=O)cc1 (centres unmarked) | 8.06 |
| O=C(O)C(=O)O.O=C(c1ccccc1)c1ccc(OCC(O)CNCc2ccc(Cl)cc2)cc1 (centres unmarked) | -66.6 |
| Nc1nc2n(n1)C(c1cccc(Br)c1)CC(c1ccccc1)N2 (centres unmarked) | -14.1 |
| O=C(O)C1CC(O)CN1c1nc(Cl)ccc1[N+](=O)[O-] (centres unmarked) | 8.17 |
| CC1CN(C(=O)c2cc3c(s2)CCC3)CC(C)O1 (centres unmarked) | -9.56 |
| O=C(Nc1ccc(NC(=S)NC(=O)c2ccccc2Cl)cc1)c1cccc(Cl)c1 | 12.8 |

| SMILES | hERG current change (%, negative = inhibition) at 10uM [%] |
| --- | --- |
| Cc1ccc(NC(=S)NNC(=O)c2nn(C)cc2Cl)cc1 | 7.28 |
| O=C1NC(c2cc3c(cc2Cl)OCO3)Oc2ccccc21 (centres unmarked) | -12.7 |
| COc1ccc(C(C)=O)cc1CC(C(=O)c1ccccc1)N(C)C.Cl (centres unmarked) | 5.17 |
| CC(=O)N1CCN(C(=S)c2ccc(N(C)C)cc2)CC1 | -0.806 |
| Cc1ccc(S(=O)(=O)N(C)C)cc1NC(=O)c1cc(=O)[nH]c2ccccc12 | 11.9 |
| CCc1nn(CCCC(=O)NCc2ccco2)c(=O)c2cc3occc3n12 | -14 |
| Cc1cccc(N2CCN(CC(=O)Nc3ccc(-n4cnnn4)cc3)CC2)c1C | 12.8 |
| Cc1ccc2nc(SCc3nc4ccccc4c(=O)[nH]3)[nH]c2c1 | 6.85 |
| COc1ccc(C(=O)NC(C)c2nc3ccccc3n2C)cc1OC (centres unmarked) | -22.8 |
| COc1ccc(C(=O)CSc2nc3ncccc3[nH]2)cc1OC | 4.87 |
| CC(C)(CNC(=O)c1ccc(S(=O)(=O)Nc2ccc(Cl)cc2)cc1)N1CCOCC1 | -25 |
| COc1ccc(/C=N/NC(=O)c2nc(-c3ccccc3)cc(-c3ccccc3)n2)cc1OC | -0.291 |
| CS(=O)(=O)N1N=C(c2cccs2)CC1c1ccccc1F (centres unmarked) | 20.9 |
| O=C(OCC#CCSc1nc2ccccc2s1)c1ccco1 | 2.08 |
| CCN(CC(=O)NCc1ccc(Cl)cc1)C(=O)CSc1ccc(Br)cc1 | -79.2 |
| C/C(=N\NC(=O)C(c1ccccc1)c1ccccc1)c1ccc(O)cc1 | -6.4 |
| O=C(N/C=C\c1ccccc1)NCc1ccc(Cl)cc1 | 1.95 |
| Cc1ccc(C(C2=C(O)CC(C)(C)CC2=O)C2C(=O)CC(C)(C)CC2=O)s1 (centres unmarked) | 14.9 |
| CSc1nnc(CCCCCNC(=O)OC(C)(C)C)o1 | 8 |
| CCCCn1nc2cc(C(=O)NCc3cc(C(F)(F)F)cc(C(F)(F)F)c3)ccc2c1OCC | 19.7 |
